Test results from the antibiotic and cytotoxicity screens of Wong et al. (2023).
This is one part of the list.

Experiments:
HSkMC = human skeletal muscle cells; assay: cytotoxicity call (relative viability < 0.9); details: 10 µM
HepG2 = assay: cytotoxicity call (relative viability < 0.9); details: 10 µM
S. aureus RN4220 = assay: growth inhibition call (relative growth <= 0.2); details: 50 µM

C[C@H]1CCCCO[C@H](CN(C)CC2CC2)[C@@H](C)CN([C@@H](C)CO)C(=O)c2cc(NC(=O)Nc3ccccc3)ccc2O1
inactive: cytotoxicity call (HSkMC) | cytotoxicity call (HepG2) | growth inhibition call (S. aureus RN4220)

C[C@@H]1CN([C@H](C)CO)C(=O)Cc2cc(NC(=O)Cn3cnnn3)ccc2O[C@H]1CN(C)CC1CCCCC1
inactive: cytotoxicity call (HSkMC) | cytotoxicity call (HepG2) | growth inhibition call (S. aureus RN4220)

COc1ccc(NC(=O)N(C)C[C@@H]2OCc3ccccc3-c3c(n(C)c4ccccc34)C(=O)N([C@@H](C)CO)C[C@H]2C)cc1
inactive: cytotoxicity call (HSkMC) | cytotoxicity call (HepG2) | growth inhibition call (S. aureus RN4220)

Cc1ccccc1NCC(=O)NN
inactive: cytotoxicity call (HSkMC) | cytotoxicity call (HepG2) | growth inhibition call (S. aureus RN4220)

C[C@@H]1CN([C@H](C)CO)C(=O)c2cc(N(C)C)ccc2O[C@@H](C)CCCCO[C@@H]1CN(C)Cc1ccc(C(=O)Nc2ccccc2N)cc1
inactive: cytotoxicity call (HSkMC) | cytotoxicity call (HepG2) | growth inhibition call (S. aureus RN4220)

c1ccc(-n2nnnc2CN2CCOCC2)cc1
inactive: cytotoxicity call (HSkMC) | cytotoxicity call (HepG2) | growth inhibition call (S. aureus RN4220)

Cc1ccc(S(=O)(=O)Nc2ccc3c(c2)C(=O)N([C@H](C)CO)C[C@@H](C)[C@H](CN(C)C(=O)Nc2ccccc2)OCCCC[C@H](C)O3)cc1
inactive: cytotoxicity call (HSkMC) | cytotoxicity call (HepG2) | growth inhibition call (S. aureus RN4220)

COC(=O)[C@H]1OC2(CCCC2)O[C@@H]1C(=O)OC
inactive: cytotoxicity call (HSkMC) | cytotoxicity call (HepG2) | growth inhibition call (S. aureus RN4220)

CO[C@@H]1CN(C)C(=O)c2ccc(NC(=O)c3ccccc3)cc2OC[C@@H](C)N(C(=O)CN(C)C)C[C@H]1C
inactive: cytotoxicity call (HSkMC) | cytotoxicity call (HepG2) | growth inhibition call (S. aureus RN4220)

COc1ccc(S(=O)(=O)N(C)C[C@H]2Oc3cc(C#CC4CCCC4)ccc3S(=O)(=O)N([C@H](C)CO)C[C@@H]2C)cc1
inactive: cytotoxicity call (HSkMC) | cytotoxicity call (HepG2) | growth inhibition call (S. aureus RN4220)
